Screen size: about 310,000 compounds; about 14,000 (4.5%) showed an effect of 50% or more. Effects have a minus sign here. This is one part of the list.
Target: human ether-à-go-go-related gene (hERG) potassium channel (human, UniProt Q12809)
Assay: primary screen, population patch clamp on CHO cells stably expressing hERG
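Further: peak tail current of the secondary pulse compared with the same well before compound.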

Chain of human ether-à-go-go-related gene (hERG) potassium channel (Q12809 whole entry, looked up): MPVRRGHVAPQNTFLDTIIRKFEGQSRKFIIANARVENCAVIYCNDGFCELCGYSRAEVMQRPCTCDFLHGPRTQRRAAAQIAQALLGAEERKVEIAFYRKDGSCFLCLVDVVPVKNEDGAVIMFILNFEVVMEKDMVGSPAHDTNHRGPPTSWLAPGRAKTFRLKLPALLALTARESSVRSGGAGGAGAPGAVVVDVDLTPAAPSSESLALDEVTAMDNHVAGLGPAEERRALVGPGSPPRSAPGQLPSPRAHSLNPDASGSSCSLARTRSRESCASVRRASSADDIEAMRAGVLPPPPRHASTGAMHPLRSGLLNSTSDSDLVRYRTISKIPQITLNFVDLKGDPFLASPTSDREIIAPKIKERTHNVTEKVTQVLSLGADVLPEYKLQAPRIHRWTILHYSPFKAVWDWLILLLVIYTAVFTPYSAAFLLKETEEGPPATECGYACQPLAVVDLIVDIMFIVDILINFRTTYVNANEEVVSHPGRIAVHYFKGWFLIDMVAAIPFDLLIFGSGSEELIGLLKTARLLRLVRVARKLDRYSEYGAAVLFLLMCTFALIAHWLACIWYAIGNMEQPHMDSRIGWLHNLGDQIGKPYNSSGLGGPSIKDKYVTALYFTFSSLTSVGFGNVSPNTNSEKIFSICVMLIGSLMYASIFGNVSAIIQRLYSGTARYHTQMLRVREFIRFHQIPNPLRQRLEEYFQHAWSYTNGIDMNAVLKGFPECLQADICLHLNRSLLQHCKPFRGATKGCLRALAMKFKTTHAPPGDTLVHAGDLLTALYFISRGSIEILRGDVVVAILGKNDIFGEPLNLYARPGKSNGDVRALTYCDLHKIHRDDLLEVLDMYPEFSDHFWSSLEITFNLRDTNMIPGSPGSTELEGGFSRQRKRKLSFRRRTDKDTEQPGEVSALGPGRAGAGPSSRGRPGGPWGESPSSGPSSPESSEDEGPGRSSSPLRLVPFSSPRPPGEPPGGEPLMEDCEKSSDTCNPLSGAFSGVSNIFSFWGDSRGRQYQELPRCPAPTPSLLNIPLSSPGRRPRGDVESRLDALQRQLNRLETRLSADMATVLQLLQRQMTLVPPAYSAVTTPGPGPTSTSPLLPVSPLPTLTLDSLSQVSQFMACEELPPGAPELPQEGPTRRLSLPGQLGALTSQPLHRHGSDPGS

SMILES	hERG current change (%, negative = inhibition) at 10uM [%]
COc1cccc(/C=N/NC(=O)CCn2c3ccccc3c3ccccc32)c1	7.54
Cc1cnc(C(=O)OCC(=O)NCCCc2ccccc2)cn1	19.7
O=C(/C=C/c1ccco1)N1CCN(S(=O)(=O)c2cccs2)CC1	-7.4
CCCCCC(=O)N1CCN(S(=O)(=O)c2ccc3c(c2)OCCO3)CC1	-61
COc1ccc(/C=C2\CCCC(C(=O)C(F)(F)F)=C2O)cc1OC	21.2
COc1ccc(C(=O)Nc2ccc(C(=O)N3CCC(C)CC3)cc2)cc1OC	1.42
CC12CCC(C(=O)N(CCCN3CCN(Cc4ccccc4)CC3)C1=O)C2(C)C.Cl (stereo not shown)	-6.77
O=C(CN1CCOCC1)Nc1ncc(Cc2cccc(Cl)c2)s1	-43
CC1(C)CC(NC(=O)c2ccccc2Cl)CC(C)(C)N1.Cl	-4.71
CCC(C(=O)Nc1cc(Cl)c(OC)cc1OC)c1ccccc1 (stereo not shown)	37.3
O=C(CCCN1C(=O)c2cccnc2Oc2ccc(Cl)cc21)N1CCCCC1	-9.27
CN(C)c1ccc(C(=O)NCC(c2cccs2)N2CCOCC2)cc1[N+](=O)[O-] (stereo not shown)	-7.74
O=C(c1ccc(Br)cc1)N1CCC(C(=O)N2CCN(Cc3ccccc3)CC2)CC1	-60.1
Fc1cccc(Cc2noc(CN3CCCCC3CCc3ccccn3)n2)c1 (stereo not shown)	0.789
N#C/C(=N\Nc1ccc([N+](=O)[O-])cc1)C(=N)N1CCOCC1	-54.2
Cc1ccccc1C(=O)N1CCC(C(=O)NC2CCCC2)CC1	17.2
Fc1cccc(-n2c(-c3cccs3)nc3nc4ccccc4nc32)c1	5.14
COc1cccc(-c2ccc(SCC(=O)N3CCOCC3)nn2)c1	-0.256
C=CCSc1nc2c(cnn2-c2ccccc2)c(=O)n1N	-21.9
COc1ccc(S(=O)(=O)N2CCOC2CNC(=O)C(=O)NCCc2ccc(OC)c(OC)c2)cc1C (stereo not shown)	-10.9
Cc1nc(C(=O)NC2CC2)sc1C1(C)CC(c2cccc([N+](=O)[O-])c2)=NO1 (stereo not shown)	-41
CC(=O)c1ccc(S(=O)(=O)N2CCN(CC(=O)NC(=O)NC3CCCCC3)CC2)cc1	-16.8

SMILES	hERG current change (%, negative = inhibition) at 10uM [%]
COc1ccc(OC)c(-c2csc(NC(=O)COC(=O)C3CCC3)n2)c1	1.93
Cc1cc(C)n2nc(C(=O)OCC(=O)c3cc(C)n(C)c3C)nc2n1	-3.7
Cc1ccc(NC(=O)c2ccc(Cl)cc2[N+](=O)[O-])nc1	6.4
CCCn1c(C(=O)c2ccccc2)nc2ccccc21	-3.79
CCc1cccc(NC(=O)Cn2c(-c3ccccc3)cc(C(C)=O)c2C)c1	11.9
COc1ccc(C2C(C#N)=C(/N=C/N3CCN(C)CC3)OC3=C2C(=O)CC(C)(C)C3)cc1 (stereo not shown)	-16.1
COc1cc(C2C(C#N)=C(N)Oc3cc(C)n(CCN4CCOCC4)c(=O)c32)cc(OC)c1OC (stereo not shown)	20.7
O=C(c1ccccc1)c1cc2ccccc2oc1=O	1.38
CCc1ccc(Nc2ccc3nonc3c2[N+](=O)[O-])cc1	-5.54
CC(=O)Nc1cccc(-n2nnc(SCC(N)=O)n2)c1	5.88
Cn1c(-c2ccccc2)cnc1SCc1nc2ccccc2c(=O)[nH]1	-59.9
COc1ccc(NC(=O)c2cccc3c2C(=O)N(C2CCCCC2)C3)cc1	18.2
Cc1ccccc1Nc1nc(N)nc(CSc2ccc(F)cc2)n1	-50.4
COc1ccc(N2C(=O)CCC(C(=O)N3CCC(C(N)=O)CC3)C2c2ccc(F)cc2)cc1 (stereo not shown)	-2.18
CC(=O)Nc1ccc(NC2=CC(=O)c3ccccc3C2=O)cc1	11.6
COc1cccc(C(=O)C2CCCN(CC3=Cc4cc(OC)ccc4OC3)C2)c1 (stereo not shown)	-56.6
CC1(CCCN2C(=O)c3ccccc3C2=O)OCCO1	16.6
CC1=C(C)CC(C(=O)Nc2ccc(C(=O)N3CCOCC3)cc2)C(C(=O)O)C1 (stereo not shown)	28.6
Cc1ccc(C(=O)/C=C/N(C)C)cn1	30.9
CCOC(=O)c1sc(NC(=O)COc2ncnc3ccccc23)c(C(=O)OCC)c1C	-4.52
CC(=O)N1CCN=C1SCc1ccccc1	19.1
COc1ccc(N2CCN(S(=O)(=O)c3cccc4cccnc34)CC2)cc1	-21.8

SMILES	hERG current change (%, negative = inhibition) at 10uM [%]
CCCn1cc(CN2CCCC(CNC(=O)c3ccc(F)cc3)C2)c(C)n1 (stereo not shown)	-25.5
CCNC(=O)CC1SC(=Nc2ccc(C)cc2)N(CC)C1=O (stereo not shown)	8.86
COC(C[C@@H]1O[C@@H]1C(=O)[C@H](C)OCc1ccccc1)OC	5.62
NC(=O)c1cc(S(=O)(=O)NCc2cccc(Br)c2)cs1	-25.6
Fc1ccc(/C=N/Nc2cc(N3CCOCC3)ncn2)cc1	15.4
Cn1nc(C(F)(F)F)c(-c2ccccc2)c1NC(=O)CCC(=O)O	11.9
Cc1cc(-c2ccccc2)nc(Cl)c1C#N	14.5
CCOc1ccc2nc(N3CCCC(C(=O)NC4CCCC4)C3)sc2c1 (stereo not shown)	-0.903
CC[n+]1c(/C=C/c2ccc(OC(C)=O)c(OC)c2)ccc2ccccc21.[I-]	-4.85
C[N+]1(CC2COC3(CCCCC3)O2)CCCC1.[I-] (stereo not shown)	9.24
Cc1csc2nc(CNS(=O)(=O)c3cccnc3)cn12	3.04
Cc1nc2c(=O)n(-c3ccc(F)c(Cl)c3)nc(C)c2s1	4.63
CCOC(=O)N1CCN(S(=O)(=O)c2cc(Br)cnc2N)CC1	-11.9
COc1cc2c(cc1OC)CN(C(=O)C1CCN(S(=O)(=O)c3ccccc3F)CC1)CC2	-8.59
Cc1c(C2=CCN(S(=O)(=O)c3ccc(Cl)cc3)CC2)c2ccccc2n1C	24.7
COc1cccc(NC(=O)CSc2nnc(-c3cccs3)n2C)c1	-16.6
CCOCCCNC(=O)C(c1ccc(C)cc1)N(Cc1ccc2c(c1)OCO2)C(=O)c1cnccn1 (stereo not shown)	2.11
O=C(c1cc(-c2ccco2)nn1-c1cccc(Cl)c1)N1CCCCC1	-37.4
COc1ccccc1CN(C(=O)c1cnccn1)C(C(=O)NC1CCCCC1)c1cc(OC)c(OC)c(OC)c1 (stereo not shown)	11.1
O=C(O)c1ccc(-c2ccccc2Cl)o1	8.61
Cc1cc(C)n(-c2ccc(C(=O)OCC(=O)N(CC(C)C)C3CCS(=O)(=O)C3)cc2)n1 (stereo not shown)	-0.661
Cc1ccc(C)c(OCCCN2CCc3ccccc3C2)c1.Cl	-49.4

SMILES	hERG current change (%, negative = inhibition) at 10uM [%]
CCN(C(=O)COC(=O)CNC(=O)c1ccc(C)c(C)c1)C1CCS(=O)(=O)C1 (stereo not shown)	-14
CCN(CC)C(=O)Cn1nc(-c2ccc(Cl)cc2)c2ccccc2c1=O	-34.3
CCC(NC(=O)c1ccccc1NC(=O)c1ccccc1)C(=O)O (stereo not shown)	7.75
CC(C)C(=O)NS(=O)(=O)c1ccc(NS(C)(=O)=O)cc1	-4.42
CCOc1ncccc1C(=O)OCC(=O)N1CCN(S(=O)(=O)c2ccccc2)CC1	-1.66
CC(C)C[C@H](NC(=O)Nc1ccccc1F)C(=O)O	-4.48
CC(C)c1ccc(NC(=O)C2C3C=CC4(CN(CCCN5CCOCC5)C(=O)C24)O3)cc1 (stereo not shown)	-16
COc1cccc(CNC(=O)C(=O)NCC2OCCCN2S(=O)(=O)c2cc(C)ccc2C)c1 (stereo not shown)	-8.81
CCOc1ccc(CNc2ccc3c(c2)ncn3C(C)(C)C)cc1	-58.6
Cc1cc(C(=O)OCC(=O)NCCCN2CCCC2=O)c2ccccc2n1	13.1
CC(=O)Nc1cc(ON=C(C)C)cc([N+](=O)[O-])c1	4.63
CCCCNC(=O)[C@@H]1CSC2c3ccc(OC)c(OC)c3C(=O)N21 (stereo partly shown)	13.5
Nc1ccc(CCc2ccc(N)cc2)cc1	16.8
Cl.Nc1ccn([C@@H]2O[C@H](CO)[C@@H](O)[C@@H]2O)c(=O)n1	12.4
Cc1c(C=O)c2ccccn2c1C(=O)c1ccc(F)cc1	-28.7
O=C(Nc1ccc(OC(F)F)cc1)Nc1cccc(C(F)(F)F)c1	6.56
Cc1ccc(S(=O)(=O)N(C)C)cc1NC(=O)C(C)N(C)Cc1sccc1C (stereo not shown)	-16.1
Cc1ccnc(NC(=O)C2CCCN(S(=O)(=O)c3cnc[nH]3)C2)c1 (stereo not shown)	7.51
Cc1c(NC(=O)OCCNC(=O)COc2ccc(Cl)cc2Cl)sc(=S)n1C	-5.51
Cc1cc(C)c(C#N)c(Nc2ccccc2F)n1	11.1
COc1ccc(OCc2cccc(C(=O)Nn3cc([N+](=O)[O-])cn3)c2)cc1	-15.6
O=C(CN1CCN(Cc2ccc3c(c2)OCO3)CC1)Nc1cc(S(=O)(=O)N2CCCC2)ccc1Cl	-18.8

Source: PMC4336329 (PLoS ONE, 2015)
